Measured values: the antibiotic and cytotoxicity screens of Wong et al. (2023)
The list shows a part of the results.

How the values were obtained:
HSkMC = human skeletal muscle cells; assay: cytotoxicity call (relative viability < 0.9); conditions: 10 µM
HepG2 = assay: cytotoxicity call (relative viability < 0.9); conditions: 10 µM
S. aureus RN4220 = assay: growth inhibition call (relative growth <= 0.2); conditions: 50 µM

SMILES | cytotoxicity call (HSkMC) | cytotoxicity call (HepG2) | growth inhibition call (S. aureus RN4220)
CCN1CC2(CCN(C(=O)[C@H]3CCC(=O)N3)CC2)COc2ccccc2S1(=O)=O | inactive | inactive | inactive
CCCCCCCCCC(=O)N[C@@H](Cc1c[nH]c2ccccc12)C(=O)N[C@H](CC(N)=O)C(=O)N[C@@H](CC(=O)O)C(=O)N[C@@H]1C(=O)NCC(=O)N[C@@H](CCCN)C(=O)N[C@@H](CC(=O)O)C(=O)N[C@H](C)C(=O)N[C@@H](CC(=O)O)C(=O)NCC(=O)N[C@H](CO)C(=O)N[C@@H]([C@H](C)CC(=O)O)C(=O)N[C@@H](CC(=O)c2ccccc2N)C(=O)O[C@@H]1C | inactive | inactive | active
COc1ccc(NC(=O)N(C)C[C@H]2Oc3c(NC(=O)c4ccc(-c5nccs5)cc4)cccc3C(=O)N([C@H](C)CO)C[C@H]2C)cc1 | inactive | inactive | inactive
CC(C)NC(=O)Nc1ccc2c(c1)C(=O)N([C@@H](C)CO)C[C@H](C)[C@H](CN(C)Cc1ccc(Oc3ccccc3)cc1)O2 | inactive | inactive | inactive
Clc1ccc(/N=C/c2ccc(Br)o2)cc1Cl | inactive | inactive | inactive
CC(C)NC(=O)N[C@H]1CC[C@@H](CCN)O[C@H]1CO | inactive | inactive | inactive
COc1ccc(S(=O)(=O)Nc2ccc3c(c2)C(=O)N([C@H](C)CO)C[C@H](C)[C@@H](CN(C)C(=O)Nc2ccc(F)cc2)OCCCC[C@@H](C)O3)cc1 | inactive | inactive | inactive
S=C(NCCCc1cnc[nH]1)NCCCN(Cc1ccc(Cl)c(Cl)c1)c1ccc(Br)cn1 | active | active | inactive
C[C@@H]1CN([C@H](C)CO)C(=O)c2cccc(NS(=O)(=O)c3cn(C)cn3)c2O[C@H]1CN(C)S(=O)(=O)c1cn(C)cn1 | inactive | inactive | inactive
C[C@H](CO)N1C[C@H](C)[C@@H](CN(C)C(=O)NC2CCCC2)Oc2cc(-c3cncnc3)ccc2S1(=O)=O | inactive | inactive | inactive
CC(C)NC(=O)N(C)C[C@H]1Oc2ccc(NC(=O)C3CCCCC3)cc2C(=O)N([C@H](C)CO)C[C@@H]1C | inactive | inactive | inactive
C[C@@H]1CCCCO[C@@H](CN(C)S(=O)(=O)c2ccc(Cl)cc2)[C@@H](C)CN([C@@H](C)CO)C(=O)c2cc(NS(=O)(=O)c3ccc(F)cc3)ccc2O1 | inactive | active | inactive
O=C(C[C@@H]1C[C@@H]2c3cc(NC(=O)c4ccc5c(c4)OCO5)ccc3O[C@@H]2[C@H](CO)O1)NCc1ccc(Oc2ccccc2)cc1 | active | active | inactive
Cc1noc(C)c1S(=O)(=O)N(C)C[C@@H]1Oc2ccc(NC(=O)NC3CCCCC3)cc2CC(=O)N([C@@H](C)CO)C[C@@H]1C | inactive | inactive | inactive
Cc1ncc([N+](=O)[O-])n1CCO | inactive | inactive | inactive
COc1ccc([C@H]2[C@@H](C(N)=O)C2(C#N)C#N)cc1 | inactive | inactive | inactive
COc1ccccc1C#Cc1ccc2c(c1)O[C@@H](CN(C)Cc1cncnc1)[C@H](C)CN([C@H](C)CO)S2(=O)=O | active | inactive | inactive
C[C@H](CO)N1C[C@H](C)[C@H](CN(C)S(C)(=O)=O)Oc2cc(-c3ccc(F)cc3)ccc2S1(=O)=O | inactive | inactive | inactive
CCOC(=O)[C@H]1C/C=C/C[C@H](C(=O)OCC)C(=O)O[C@H]2[C@@H](OC)O[C@H](CO)[C@@H](OC(=O)c3ccc(Br)cc3)[C@@H]2OC1=O | inactive | inactive | inactive
O=C(CCCCCNC(=O)OCc1ccc(CO[C@@H]2C[C@H](c3ccc(C(F)(F)F)cc3)C=C(C(=O)N3CCN(Cc4ccccc4)CC3)O2)cc1)NO | inactive | inactive | inactive

SMILES | cytotoxicity call (HSkMC) | cytotoxicity call (HepG2) | growth inhibition call (S. aureus RN4220)
C[C@H]1CN([C@@H](C)CO)C(=O)Cc2cc(NC(=O)Nc3cccc4ccccc34)ccc2O[C@H]1CN(C)C(=O)NC1CCCCC1 | inactive | inactive | inactive
C[C@@H]1CCCCO[C@H](CN(C)CC2CCCCC2)[C@@H](C)CN([C@H](C)CO)C(=O)c2cc(NC(=O)Nc3ccc(F)cc3)ccc2O1 | inactive | inactive | inactive
CC(C)NC(=O)N(C)C[C@@H]1Oc2c(NS(=O)(=O)c3ccccc3)cccc2C(=O)N([C@@H](C)CO)C[C@H]1C | inactive | inactive | inactive
O=C(C[C@@H]1CC[C@@H]2[C@H](COC[C@H](O)CN2Cc2cc(F)ccc2F)O1)N[C@@H]1CCN(Cc2ccccc2)C1 | inactive | inactive | inactive
C[C@H](CO)N1C[C@H](C)[C@@H](CN(C)S(=O)(=O)c2cn(C)cn2)Oc2c(NC(=O)C3CCOCC3)cccc2C1=O | inactive | inactive | inactive
O=c1c2ccccc2oc2ccccc12 | inactive | inactive | inactive
COc1ccc(COC[C@]23NC(=S)N[C@H](c4ccccc4O2)[C@H]3COC(=O)NCCCCCC(=O)NO)cc1 | inactive | inactive | inactive
CC(C)NC(=O)N(C)C[C@H]1Oc2ccc(NC(=O)CCN3CCOCC3)cc2C(=O)N([C@@H](C)CO)C[C@@H]1C | inactive | inactive | inactive
CN(CC(=O)O)C1CCCC1 | inactive | inactive | inactive
COCC(=O)N1C[C@@H](C)[C@H](OC)CN(C)C(=O)c2ccc(NC(=O)c3ccc(OC)cc3)cc2OC[C@H]1C | inactive | inactive | inactive
CCOC(=O)c1cn[nH]c1 | inactive | inactive | inactive
C[C@@H]1CN([C@@H](C)CO)S(=O)(=O)c2ccc(C#CCN(C)C)cc2O[C@@H]1CN(C)S(C)(=O)=O | inactive | inactive | inactive
C[C@@H]1CCCCO[C@@H](CN(C)Cc2ccc(C(F)(F)F)cc2)[C@@H](C)CN([C@H](C)CO)C(=O)c2cc(NC(=O)c3ccccc3)ccc2O1 | inactive | inactive | inactive
O=C(C[C@@H]1C[C@H]2c3cc(NS(=O)(=O)c4ccc(F)cc4)ccc3O[C@H]2[C@@H](CO)O1)NCc1ccncc1 | inactive | inactive | inactive
C[C@@H]1CN([C@@H](C)CO)C(=O)Cc2cc(NS(C)(=O)=O)ccc2O[C@H]1CN(C)C(=O)Nc1ccc2c(c1)OCO2 | inactive | inactive | inactive
C[C@@H]1CN([C@H](C)CO)C(=O)c2cc(NC(=O)Nc3ccccc3)ccc2O[C@@H](C)CCCCO[C@@H]1CN(C)Cc1ccc(Cl)c(Cl)c1 | inactive | active | inactive
C[C@@H]1CCCCO[C@H](CN(C)C(=O)Nc2ccc(F)cc2)[C@@H](C)CN([C@H](C)CO)C(=O)c2cc(NS(=O)(=O)c3cccs3)ccc2O1 | inactive | inactive | inactive
Cc1ccc(S(=O)(=O)Nc2cccc3c2O[C@H](CN(C)C(=O)Nc2cccc4ccccc24)[C@H](C)CN([C@H](C)CO)C3=O)cc1 | inactive | inactive | inactive
C[C@@H]1CN([C@@H](C)CO)C(=O)c2cc(NS(=O)(=O)c3ccc(Cl)cc3)ccc2O[C@H]1CN(C)C(=O)Nc1ccc(C(F)(F)F)cc1 | inactive | inactive | inactive
COc1ccc(COC[C@]23N=C4SCc5ccccc5CN4[C@H](c4ccccc4O2)[C@H]3CO[Si](C)(C)C(C)(C)C)cc1 | inactive | inactive | inactive
